In the supplement of paper PMC7826260:
Some of the results follow. Cleavage of a single-stranded DNA pool by Rep nickase domains was read by sequencing (1 h at 37 °C, 3 µM enzyme); the outer parts of the 90-letter strands are left off. Numbers give uncut DNA relative to the enzyme-free pool, as log2; more negative means more cut, near 0 not cut, and no call is made. Shares of all reads are compared; where an enzyme cuts many sequences, the uncut ones exceed 0.

Tests used:
Experiment in all cases: uncleaved DNA left, log2 of reads against the no-enzyme library (log2 ratio); higher = less cleavage (more negative = more Rep cleavage of the k-mer); sequences stand for … in CTCGTCCG…ACCGGAGA
[1] = test system: T1, Rep nickase domain of Muscovy duck circovirus
T1 sequence (residues 1-111 of Rep, tag left off): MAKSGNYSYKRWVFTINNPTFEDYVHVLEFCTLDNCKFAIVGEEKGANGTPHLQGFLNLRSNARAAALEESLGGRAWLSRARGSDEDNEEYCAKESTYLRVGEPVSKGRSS
Experimental: (§1)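 A pool of 90-nt single-stranded DNAs with seven random bases just before the constant AC of the nick site (name = the seven bases) was cut by 3 µM recombinant His6-SUMO-tagged Rep nickase domain (300 nM DNA, 50 mM HEPES pH 8.0, 50 mM NaCl, 1 mM MnCl2, 1 h, 37 °C, three replicates). Uncut DNA was amplified and sequenced.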

[2] = test system: T2, Rep nickase domain of banana bunchy top virus
T2 sequence (residues 1-94 of Rep, tag left off): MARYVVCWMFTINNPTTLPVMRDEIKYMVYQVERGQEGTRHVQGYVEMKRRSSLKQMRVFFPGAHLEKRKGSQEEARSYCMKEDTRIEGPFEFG
Experimental: as §1

[3] = test system: T3, Rep nickase domain of cabbage leaf curl virus
T3 sequence (residues 1-116 of Rep, tag left off): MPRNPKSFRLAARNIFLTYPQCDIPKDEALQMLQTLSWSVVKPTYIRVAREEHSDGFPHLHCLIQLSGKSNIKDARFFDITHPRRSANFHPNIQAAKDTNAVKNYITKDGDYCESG
Experimental: as §1

[4] = test system: T4, Rep nickase domain of chickpea chlorotic dwarf virus
T4 sequence (residues 1-124 of Rep, tag left off): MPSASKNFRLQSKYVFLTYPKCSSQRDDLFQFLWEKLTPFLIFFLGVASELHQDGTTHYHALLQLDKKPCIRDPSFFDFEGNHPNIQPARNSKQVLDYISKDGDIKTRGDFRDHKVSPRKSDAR
Experimental: as §1

[5] = test system: T5, Rep nickase domain of faba bean necrotic yellows virus
T5 sequence (residues 1-98 of Rep, tag left off): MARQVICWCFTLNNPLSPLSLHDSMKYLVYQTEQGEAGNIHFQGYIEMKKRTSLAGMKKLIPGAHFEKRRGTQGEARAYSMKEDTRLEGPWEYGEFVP
Experimental: as §1

[6] = test system: T6, Rep nickase domain of maize striate mosaic virus
T6 sequence (residues 1-117 of Rep, tag left off): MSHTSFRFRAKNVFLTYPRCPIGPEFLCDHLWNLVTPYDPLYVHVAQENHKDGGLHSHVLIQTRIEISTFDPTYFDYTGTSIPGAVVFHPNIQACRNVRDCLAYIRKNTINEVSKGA
Experimental: as §1

[7] = test system: T7, Rep nickase domain of porcine circovirus 2
T7 sequence (residues 2-116 of Rep, tag left off): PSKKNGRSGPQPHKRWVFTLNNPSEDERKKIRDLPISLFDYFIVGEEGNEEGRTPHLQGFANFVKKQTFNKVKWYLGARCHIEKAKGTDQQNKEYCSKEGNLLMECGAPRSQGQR
Experimental: as §1

[8] = test system: T8, Rep nickase domain of tomato golden mosaic virus
T8 sequence (residues 1-124 of Rep, tag left off): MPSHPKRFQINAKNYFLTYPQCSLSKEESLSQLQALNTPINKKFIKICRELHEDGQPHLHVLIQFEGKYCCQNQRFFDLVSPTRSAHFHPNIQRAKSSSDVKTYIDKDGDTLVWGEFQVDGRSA
Experimental: as §1

[9] = test system: T9, Rep nickase domain of tomato yellow leaf curl virus
T9 sequence (residues 1-136 of Rep, tag left off): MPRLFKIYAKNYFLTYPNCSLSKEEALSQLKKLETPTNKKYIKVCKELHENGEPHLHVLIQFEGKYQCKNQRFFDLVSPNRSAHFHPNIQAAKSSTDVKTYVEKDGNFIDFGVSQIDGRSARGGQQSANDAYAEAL
Experimental: as §1

[10] = test system: T10, Rep nickase domain of wheat dwarf virus
T10 sequence (residues 1-137 of Rep, tag left off): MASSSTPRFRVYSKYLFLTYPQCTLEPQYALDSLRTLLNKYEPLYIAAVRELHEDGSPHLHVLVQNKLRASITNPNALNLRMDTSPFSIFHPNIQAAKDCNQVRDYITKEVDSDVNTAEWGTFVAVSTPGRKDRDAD
Experimental: as §1

Sequence | uncleaved DNA left (log2) [1] | uncleaved DNA left (log2) [2] | uncleaved DNA left (log2) [3] | uncleaved DNA left (log2) [4] | uncleaved DNA left (log2) [5] | uncleaved DNA left (log2) [6] | uncleaved DNA left (log2) [7] | uncleaved DNA left (log2) [8] | uncleaved DNA left (log2) [9] | uncleaved DNA left (log2) [10]
TTGTGGT | -0.221 | -0.106 | -0.189 | -0.31 | -0.0602 | -0.574 | -2.52 | -0.0408 | 0.0241 | -0.0188
GAAGAAC | 0.114 | 0.0867 | 0.303 | 0.465 | 0.121 | 0.618 | 0.189 | 0.0734 | 0.18 | 0.137
CCGAATC | -0.0359 | 0.0974 | 0.0904 | 0.077 | 0.0168 | -0.396 | -0.0599 | -0.107 | 0.0393 | 0.018
TGCTACA | -0.115 | 0.2 | -1.86 | -2.09 | 0.0325 | -0.12 | -2.02 | -0.905 | 0.142 | -1.36
GGGCCTG | -0.0956 | 0.0701 | 0.462 | 1.41 | -0.049 | 2.05 | 0.184 | 0.0115 | 0.0285 | 0.063
AGATTGC | 0.059 | -0.0639 | -0.634 | 0.331 | 0.0111 | -0.845 | 0.0956 | -0.0209 | 0.126 | -0.0797
GTTAGAA | 0.109 | 0.143 | 0.294 | 0.917 | 0.113 | 1.77 | 0.178 | 0.119 | 0.0407 | 0.11
GACAATG | 0.0796 | 0.0899 | -0.0433 | 0.294 | -0.0165 | -0.377 | 0.0648 | 0.159 | 0.0699 | 0.112
CTCTACT | -3.15 | -0.666 | -0.735 | -2.74 | -0.0384 | -0.676 | -3.7 | -0.00611 | -0.111 | -0.362
TAAATAA | -0.00886 | -0.0433 | -0.838 | -2.49 | -0.0529 | -0.701 | 0.0244 | -0.0521 | -0.0552 | -0.378
GGGTCCA | -0.0299 | 0.0796 | 0.739 | 1.67 | -0.131 | 2.07 | 0.0712 | -0.0278 | -0.00639 | 0.118
CGTGCGA | -0.0488 | -0.0179 | -0.676 | -0.365 | 0.00306 | -0.804 | 0.0657 | -0.00645 | 0.0344 | -0.114
CTGGCTC | 0.13 | 0.109 | 0.127 | 0.0617 | -0.056 | 0.294 | 0.152 | -0.0689 | 0.00611 | -0.0883
AAATGAC | -0.0653 | -0.0411 | -0.334 | -0.0132 | 0.047 | -0.52 | 0.0825 | 0.0287 | 0.02 | 0.0184
